Measured values reported in the supplement of paper PMC9446081.
Screen size: about 39,000 compounds; about 220 (0.56%) showed activity. This is one part of the list.

What follows are compounds tested on Escherichia coli K-12 BW25113 (assay: relative growth (OD600 normalised to plate interquartile mean) (fraction); higher = less growth inhibition, active = 0.2 or less). Details: 50 µM; LB; incubation time: overnight (16-24 h).
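Note: static incubation at 37 °C against the wild-type strain, values averaged over two biological replicates.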

Row | SMILES | relative growth
1 | C[C@@H]1CCCCO[C@H](CN(C)C(=O)C2CCCCC2)[C@H](C)CN([C@@H](C)CO)C(=O)c2cc(NC(=O)c3ccccc3)ccc2O1 | inactive: 1.01
2 | C[C@@H]1CN([C@H](C)CO)C(=O)c2cccc(NC(=O)c3cnccn3)c2O[C@H]1CN(C)S(=O)(=O)c1cccs1 | inactive: 1.01
3 | CC(C)(C)OC(=O)C[C@H]1CC=CC[C@@H](CC(=O)NCCO)C(=O)N[C@@H](Cc2ccccc2)COC1=O | inactive: 0.986
4 | CC(C)NC(=O)N(C)C[C@H]1Oc2ncc(-c3ccc(C(=O)N(C)C)cc3)cc2C(=O)N([C@@H](C)CO)C[C@@H]1C | inactive: 0.983
5 | CCC1(O)CC2CN(CCc3c([nH]c4ccccc34)C(C(=O)OC)(c3cc4c(cc3OC)N(C)C3C(O)(C(=O)OC)C(OC(C)=O)C5(CC)C=CCN6CCC43C65)C2)C1.O=S(=O)(O)O (stereo not drawn) | inactive: 0.932
6 | COc1ccc(CCN2C(=O)[C@@]3(c4ccc([N+](=O)[O-])cc4)CC(=O)N(CC45CC6CC(CC(C6)C4)C5)[C@@H]3c3ccc(CO)cc32)cc1 | inactive: 0.994
7 | COc1ccc(-c2ccc3c(c2)O[C@H](CN(C)CC2CCOCC2)[C@H](C)CN([C@H](C)CO)S3(=O)=O)cc1 | inactive: 0.999
8 | C[C@H](CO)N1C[C@H](C)[C@H](CN(C)Cc2ccc3c(c2)OCO3)Oc2ccc(NC(=O)Cn3cnnn3)cc2C1=O | inactive: 1.01
9 | COc1ccc(NC(=O)O[C@H]2[C@H](OC(=O)Nc3ccccc3-c3ccccc3)[C@@H](OC(=O)Nc3ccccc3-c3ccccc3)[C@@H](OC)O[C@@H]2COC(=O)NCCCCCC(=O)NO)cc1 | inactive: 1.02
10 | O=C(NC1CCCCCCC1)c1ccccc1-c1ccccc1 | inactive: 0.992
11 | C[C@H]1CN([C@@H](C)CO)C(=O)c2cccc(NC(=O)Nc3cccc4ccccc34)c2O[C@H]1CN(C)Cc1ccc(C(=O)O)cc1 | inactive: 0.998
12 | C[C@H](CO)N1C[C@H](C)[C@@H](CN(C)C(=O)Nc2ccc(C(F)(F)F)cc2)Oc2c(NC(=O)Nc3cccc4ccccc34)cccc2C1=O | inactive: 0.991
13 | CN(C)CCCNC(=O)C[C@H]1CC[C@H]2[C@@H](COc3ccc(NC(=O)NC4CCCC4)cc3C(=O)N2C)O1 | inactive: 1.01
14 | Cc1ccccc1S(=O)(=O)N1C[C@@H](O)COC[C@@H]2O[C@H](CC(=O)NCCc3ccccc3)CC[C@H]21 | inactive: 0.989
15 | CN(C)Cc1cn(CC[C@@H]2CC[C@@H](NS(=O)(=O)c3ccccc3)[C@@H](CO)O2)nn1 | inactive: 1.01
16 | C[C@@H]1CN([C@@H](C)CO)C(=O)Cc2cc(NC(=O)Nc3ccc(C(F)(F)F)cc3)ccc2O[C@H]1CN(C)Cc1ccncc1 | inactive: 1
17 | C[C@@H]1CN([C@@H](C)CO)C(=O)Cc2cc(NC(=O)C3CCCCC3)ccc2O[C@@H]1CN(C)Cc1ccc(C(=O)Nc2ccccc2N)cc1 | inactive: 1
18 | O=C1O[C@@H](c2ccccc2)[C@@H](c2ccccc2)N2[C@@H](c3ccccc3OCCO)[C@]3(C(=O)Nc4ccc(C#CC5(O)CCCCCC5)cc43)[C@@H](C(=O)O)[C@H]12 | inactive: 0.945
19 | COCC(=O)Nc1ccc2c(c1)OC[C@H](C)N(C(=O)Cc1ccccn1)C[C@H](C)[C@@H](OC)CN(C)C2=O | inactive: 0.98

Row | SMILES | relative growth
20 | C[C@@H]1CN([C@@H](C)CO)C(=O)CCCn2cc(nn2)CO[C@@H]1CN(C)C(=O)Nc1ccc2c(c1)OCO2 | inactive: 1.01
21 | N#C[C@H](NCCO)c1ccc(F)cc1 | inactive: 1.03
22 | C[C@H](CO)N1C[C@H](C)[C@@H](CN(C)Cc2cncnc2)Oc2cc(C3=CCCCC3)ccc2S1(=O)=O | inactive: 1.04
23 | C[C@@H]1CN([C@H](C)CO)C(=O)c2cc(NC(=O)c3ccncc3)ccc2O[C@@H](C)CCCCO[C@H]1CN(C)C(=O)Nc1ccccc1 | inactive: 0.996
24 | CN(C)CCN(Cc1ccc(Cl)cc1)c1ccccn1.Cl | inactive: 1
25 | C[C@@H]1CCCCO[C@@H](CN(C)Cc2ccc(C(=O)O)cc2)[C@@H](C)CN([C@@H](C)CO)C(=O)c2cc(NC(=O)Nc3ccccc3)ccc2O1 | inactive: 0.995
26 | COc1cccc(S(=O)(=O)Nc2ccc3c(c2)[C@H]2C[C@H](CC(=O)NCc4ccccc4F)O[C@@H](CO)[C@H]2O3)c1 | inactive: 1.01
27 | C[C@H]1CN([C@@H](C)CO)C(=O)c2cc(NC(=O)Cc3cn(C)c4ccccc34)ccc2O[C@H]1CN(C)S(C)(=O)=O | inactive: 0.997
28 | CCCCCCCCCCCCCCCC(=O)OC(C)C | inactive: 1.04
29 | NC[C@@H](O)c1ccsc1 | inactive: 1.02
30 | COc1ccc(NC(=O)Nc2cccc3c2O[C@H](CN(C)S(C)(=O)=O)[C@@H](C)CN([C@@H](C)CO)C3=O)cc1 | inactive: 0.992
31 | C[C@@H]1CN([C@H](C)CO)C(=O)c2cccc(NC(=O)C3CCOCC3)c2O[C@H]1CN(C)Cc1ccc2c(c1)OCO2 | inactive: 1.01
32 | CN1CCN(C(=O)C[C@H]2CC[C@H]3[C@@H](COC[C@@H](O)CN3S(=O)(=O)c3cccc(Cl)c3)O2)CC1 | inactive: 1.01
33 | COc1ccc(NC(=O)N(C)C[C@@H]2OCCCC[C@H](C)Oc3ccc(NS(=O)(=O)c4ccc(Cl)cc4)cc3C(=O)N([C@@H](C)CO)C[C@@H]2C)cc1 | inactive: 1.03
34 | C[C@@H]1CCCCO[C@@H](CN(C)Cc2ccc(C(=O)O)cc2)[C@@H](C)CN([C@@H](C)CO)C(=O)c2cc(NC(=O)Nc3ccc(F)cc3)ccc2O1 | inactive: 0.851
35 | CC(C)CC#Cc1ccc2c(c1)O[C@@H](CN(C)C(=O)NC1CCCC1)[C@H](C)CN([C@H](C)CO)S2(=O)=O | inactive: 1.01
36 | CO[C@H]1CN(C)C(=O)c2cc(NS(=O)(=O)CC(F)(F)F)ccc2OC[C@H](C)N(Cc2nccs2)C[C@H]1C | inactive: 0.992
37 | C[C@H](CO)N1C[C@H](C)[C@@H](CN(C)C(=O)Cc2cccnc2)Oc2ncc(C#CCc3ccccc3)cc2C1=O | inactive: 0.999
38 | C[C@@H]1CN([C@H](C)CO)C(=O)c2cc(NS(=O)(=O)c3cn(C)cn3)ccc2O[C@H]1CN(C)C(=O)NC1CCCCC1 | inactive: 1.02
